# Measured values reported in the supplement of paper PMC8728848.
# This is one part of the list.
# B1: AAL (Aleuria aurantia) (protein)
# chain: MPTEFLYTSKIAAISWAATGGRQQRVYFQDLNGKIREAQRGGDNPWTGGSSQNVIGEAKLFSPLAAVTWKSAQGIQIRVYCVNKDNILSEFVYDGSKWITGQLGSVGVKVGSNSKLAALQWGGSESAPPNIRVYYQKSNGSGSSIHEYVWSGKWTAGASFGSTVPGTGIGATAIGPGRLRIYYQATDNKIREHCWDSNSWYVGGFSASASAGVSIAAISWGSTPQIRVYWQKGREELYEAAYGGSWNTPGQIKDASRPTPSLPDTFIAANSSGNIDISVFFQASGVSLQQWQWISGKGWSIGAVVPTGTPAGW
# Legend:
# Assay in all cases: glycan array binding signal (z-score within array); higher = stronger binding
# Conditions in all cases: glycan notation: IUPAC condensed, linker removed; mutation: N224Q
# [1] = molecular target: Neu5Ac(a2-3)Gal(b1-3)GlcNAc
# Outline: (§1)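 The Consortium for Functional Glycomics database supplied 3228 glycan arrays, of which those lacking an available protein sequence were dropped. The binding signal, a within-array Z-score, was averaged across arrays of the same protein sequence and across linkers. Negative scores can be read as non-binding.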
# [2] = molecular target: Neu5Ac(a2-3)Gal(b1-3)GlcNAc(b1-2)Man
# Outline: as §1
# [3] = molecular target: Neu5Ac(a2-3)Gal(b1-3)GlcNAc(b1-2)Man(a1-3)[GlcNAc(b1-4)][Neu5Ac(a2-3)Gal(b1-3)GlcNAc(b1-2)Man(a1-6)]Man(b1-4)GlcNAc(b1-4)GlcNAc
# Outline: as §1
# [4] = molecular target: Neu5Ac(a2-3)Gal(b1-3)GlcNAc(b1-2)Man(a1-3)[Neu5Ac(a2-3)Gal(b1-3)GlcNAc(b1-2)Man(a1-6)]Man(b1-4)GlcNAc(b1-4)GlcNAc
# Outline: as §1
# [5] = molecular target: Neu5Ac(a2-3)Gal(b1-3)GlcNAc(b1-2)[Neu5Ac(a2-3)Gal(b1-3)GlcNAc(b1-4)]Man(a1-6)[Neu5Ac(a2-3)Gal(b1-3)GlcNAc(b1-2)Man(a1-3)]Man(b1-4)GlcNAc(b1-4)GlcNAc
# Outline: as §1
# [6] = molecular target: Neu5Ac(a2-3)Gal(b1-3)GlcNAc(b1-3)Gal(b1-3)GlcNAc
# Outline: as §1
# [7] = molecular target: Neu5Ac(a2-3)Gal(b1-3)GlcNAc(b1-3)Gal(b1-4)GlcNAc
# Outline: as §1
# [8] = molecular target: Neu5Ac(a2-3)Gal(b1-3)GlcNAc(b1-3)GalNAc
# Outline: as §1
# [9] = molecular target: Neu5Ac(a2-3)Gal(b1-3)GlcNAc(b1-6)GalNAc
# Outline: as §1
# [10] = molecular target: Neu5Ac(a2-3)Gal(b1-3)GlcNAc6S
# Outline: as §1
# [11] = molecular target: Neu5Ac(a2-3)Gal(b1-3)[Fuc(a1-4)]GlcNAc
# Outline: as §1
# [12] = molecular target: Neu5Ac(a2-3)Gal(b1-3)[Fuc(a1-4)]GlcNAc(b1-3)Gal(b1-3)[Fuc(a1-4)]GlcNAc
# Outline: as §1
# [13] = molecular target: Neu5Ac(a2-3)Gal(b1-3)[Fuc(a1-4)]GlcNAc(b1-3)Gal(b1-4)[Fuc(a1-3)]GlcNAc
# Outline: as §1
# [14] = molecular target: Neu5Ac(a2-3)Gal(b1-3)[GlcNAc(b1-6)]GalNAc
# Outline: as §1
# [15] = molecular target: Neu5Ac(a2-3)Gal(b1-3)[Neu5Ac(a2-6)]GalNAc
# Outline: as §1
# [16] = molecular target: Neu5Ac(a2-3)Gal(b1-3)[Neu5Ac(a2-6)]GlcNAc(b1-3)[Fuc(a1-3)[Gal(b1-4)]GlcNAc(b1-6)]Gal(b1-4)Glc
# Outline: as §1
# [17] = molecular target: Neu5Ac(a2-3)Gal(b1-3)]Neu5Ac(a2-3)Gal(b1-4)]GlcNAc
# Outline: as §1
# Neu5Ac(a2-3)Gal(b1-4)Glc = molecular target: Neu5Ac(a2-3)Gal(b1-4)Glc
# Outline: as §1
# [18] = molecular target: Neu5Ac(a2-3)Gal(b1-4)GlcNAc
# Outline: as §1
# [19] = molecular target: Neu5Ac(a2-3)Gal(b1-4)GlcNAc(b1-2)Man
# Outline: as §1
# [20] = molecular target: Neu5Ac(a2-3)Gal(b1-4)GlcNAc(b1-2)Man(a1-3)[GlcNAc(b1-4)][Neu5Ac(a2-3)Gal(b1-4)GlcNAc(b1-2)Man(a1-6)]Man(b1-4)GlcNAc(b1-4)GlcNAc
# Outline: as §1
# [21] = molecular target: Neu5Ac(a2-3)Gal(b1-4)GlcNAc(b1-2)Man(a1-3)[Neu5Ac(a2-3)Gal(b1-4)GlcNAc(b1-2)Man(a1-6)]Man(b1-4)GlcNAc(b1-4)GlcNAc
# Outline: as §1
# [22] = molecular target: Neu5Ac(a2-3)Gal(b1-4)GlcNAc(b1-2)Man(a1-3)[Neu5Ac(a2-3)Gal(b1-4)GlcNAc(b1-2)Man(a1-6)]Man(b1-4)GlcNAc(b1-4)[Fuc(a1-6)]GlcNAc
# Outline: as §1
# [23] = molecular target: Neu5Ac(a2-3)Gal(b1-4)GlcNAc(b1-2)Man(a1-3)[Neu5Ac(a2-6)Gal(b1-4)GlcNAc(b1-2)Man(a1-6)]Man(b1-4)GlcNAc(b1-4)GlcNAc
# Outline: as §1
# [24] = molecular target: Neu5Ac(a2-3)Gal(b1-4)GlcNAc(b1-2)[Neu5Ac(a2-3)Gal(b1-4)GlcNAc(b1-4)]Man(a1-3)[GlcNAc(b1-4)][Neu5Ac(a2-3)Gal(b1-4)GlcNAc(b1-2)[Neu5Ac(a2-3)Gal(b1-4)GlcNAc(b1-6)]Man(a1-6)]Man(b1-4)GlcNAc(b1-4)GlcNAc
# Outline: as §1
# [25] = molecular target: Neu5Ac(a2-3)Gal(b1-4)GlcNAc(b1-2)[Neu5Ac(a2-3)Gal(b1-4)GlcNAc(b1-4)]Man(a1-3)[GlcNAc(b1-4)][Neu5Ac(a2-3)Gal(b1-4)GlcNAc(b1-4)Man(a1-6)]Man(b1-4)GlcNAc(b1-4)GlcNAc
# Outline: as §1
# [26] = molecular target: Neu5Ac(a2-3)Gal(b1-4)GlcNAc(b1-2)[Neu5Ac(a2-3)Gal(b1-4)GlcNAc(b1-6)]Man(a1-6)[Neu5Ac(a2-3)Gal(b1-4)GlcNAc(b1-2)Man(a1-3)][GlcNAc(b1-4)]Man(b1-4)GlcNAc(b1-4)GlcNAc
# Outline: as §1
# [27] = molecular target: Neu5Ac(a2-3)Gal(b1-4)GlcNAc(b1-3)Gal
# Outline: as §1
# [28] = molecular target: Neu5Ac(a2-3)Gal(b1-4)GlcNAc(b1-3)Gal(b1-3)GlcNAc
# Outline: as §1
# [29] = molecular target: Neu5Ac(a2-3)Gal(b1-4)GlcNAc(b1-3)Gal(b1-4)GlcNAc
# Outline: as §1
# [30] = molecular target: Neu5Ac(a2-3)Gal(b1-4)GlcNAc(b1-3)Gal(b1-4)GlcNAc(b1-2)Man(a1-3)[Neu5Ac(a2-3)Gal(b1-4)GlcNAc(b1-3)Gal(b1-4)GlcNAc(b1-2)Man(a1-6)]Man(b1-4)GlcNAc(b1-4)GlcNAc
# Outline: as §1
# [31] = molecular target: Neu5Ac(a2-3)Gal(b1-4)GlcNAc(b1-3)Gal(b1-4)GlcNAc(b1-3)Gal(b1-4)GlcNAc
# Outline: as §1
# [32] = molecular target: Neu5Ac(a2-3)Gal(b1-4)GlcNAc(b1-3)Gal(b1-4)GlcNAc(b1-3)Gal(b1-4)GlcNAc(b1-2)Man(a1-3)[Neu5Ac(a2-3)Gal(b1-4)GlcNAc(b1-3)Gal(b1-4)GlcNAc(b1-3)Gal(b1-4)GlcNAc(b1-2)Man(a1-6)]GalNAc
# Outline: as §1
# [33] = molecular target: Neu5Ac(a2-3)Gal(b1-4)GlcNAc(b1-3)Gal(b1-4)GlcNAc(b1-3)GalNAc
# Outline: as §1
# [34] = molecular target: Neu5Ac(a2-3)Gal(b1-4)GlcNAc(b1-3)Gal(b1-4)GlcNAc(b1-3)[Neu5Ac(a2-3)Gal(b1-4)GlcNAc(b1-3)Gal(b1-4)GlcNAc(b1-6)]GalNAc
# Outline: as §1
# [35] = molecular target: Neu5Ac(a2-3)Gal(b1-4)GlcNAc(b1-3)Gal(b1-4)GlcNAc(b1-6)[Gal(b1-3)]GalNAc
# Outline: as §1
# [36] = molecular target: Neu5Ac(a2-3)Gal(b1-4)GlcNAc(b1-3)Gal(b1-4)[Fuc(a1-3)]GlcNAc
# Outline: as §1
# [37] = molecular target: Neu5Ac(a2-3)Gal(b1-4)GlcNAc(b1-3)GalNAc
# Outline: as §1
binder,measurement,setting,value
B1,glycan array binding signal (z-score),[1],-0.324
same,glycan array binding signal (z-score),[2],-0.311
same,glycan array binding signal (z-score),[3],-0.296
same,glycan array binding signal (z-score),[4],-0.292
same,glycan array binding signal (z-score),[5],-0.281
same,glycan array binding signal (z-score),[6],-0.326
same,glycan array binding signal (z-score),[7],-0.321
same,glycan array binding signal (z-score),[8],-0.324
same,glycan array binding signal (z-score),[9],-0.315
same,glycan array binding signal (z-score),[10],-0.302
same,glycan array binding signal (z-score),[11],0.279
same,glycan array binding signal (z-score),[12],-0.15
same,glycan array binding signal (z-score),[13],1.15
same,glycan array binding signal (z-score),[14],-0.322
same,glycan array binding signal (z-score),[15],-0.315
same,glycan array binding signal (z-score),[16],-0.311
same,glycan array binding signal (z-score),[17],-0.317
same,glycan array binding signal (z-score),Neu5Ac(a2-3)Gal(b1-4)Glc,-0.317
same,glycan array binding signal (z-score),[18],-0.331
same,glycan array binding signal (z-score),[19],-0.26
same,glycan array binding signal (z-score),[20],-0.305
same,glycan array binding signal (z-score),[21],-0.321
same,glycan array binding signal (z-score),[22],1.36
same,glycan array binding signal (z-score),[23],-0.279
same,glycan array binding signal (z-score),[24],-0.327
same,glycan array binding signal (z-score),[25],-0.317
same,glycan array binding signal (z-score),[26],-0.302
same,glycan array binding signal (z-score),[27],-0.208
same,glycan array binding signal (z-score),[28],-0.317
same,glycan array binding signal (z-score),[29],-0.324
same,glycan array binding signal (z-score),[30],-0.186
same,glycan array binding signal (z-score),[31],-0.323
same,glycan array binding signal (z-score),[32],-0.105
same,glycan array binding signal (z-score),[33],-0.318
same,glycan array binding signal (z-score),[34],-0.219
same,glycan array binding signal (z-score),[35],-0.299
same,glycan array binding signal (z-score),[36],-0.32
same,glycan array binding signal (z-score),[37],-0.302
